Test results taken from the supplement of paper PMC3334620.
Whole data set: some 33,000 sequences, median “E-score (-0.5 to 0.5)” near -0.016, cut for the highest 2% near 0.31. The list shows a part of the results.

Each sequence was assayed against Cst6 (UniProt P40535) (assay: PBM E-score (8-mer binding enrichment) (E-score (-0.5 to 0.5)); higher = stronger / more preferred TF binding; most listed sequences are background and not binding sites). Conditions: protein concentration: 200 nM; construct: GST-DNA-binding domain.
Summary of the method: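 Bound GST-tagged yeast transcription factors, applied at about 100-200 nM to double-stranded universal all-10-mer Agilent arrays, were detected with fluorescent anti-GST. Scans were normalised with masliner. A modified Wilcoxon-Mann-Whitney statistic, the E-score, was assigned to each ungapped eight-base word pooled with its reverse complement by the Universal PBM Analysis Suite.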

Sequence	PBM E-score
AAGATTGC	-0.107
CTGCGTGA	0.119
ATTATATC	0.327
GAGCCCAA	-0.126
CATGCACC	-0.112
CTCGAGTC	-0.0069
ATGGAGAC	-0.141
TGAGCAAA	0.158
AGAACGCA	0.0192
TCGATCAA	-0.0743
CCAAGGAC	-0.224
CAAGCTGC	-0.0411
CAATAACA	0.0661
AGTGCTAC	-0.113
AGAATTGC	0.119
CCTACATC	-0.0998
GCTCATCA	0.213
ACAGACAC	-0.141
CGTGCTTA	0.147
ACTATTCT	0.00306
GCCATCCC	-0.176
CTCGCGTC	0.0721
CAATATAC	-0.0952
AGTTGACA	0.191

Sequence	PBM E-score
CCGGCGTC	-0.0641
ACCGCATA	0.0851
ACACCGAT	-0.234
CTCGTATC	0.0118
CAACAGTC	-0.0748
CGGTTTCC	-0.109
AATCACGA	-0.0788
CCCTAGGA	-0.295
AGGTACAT	0.00924
TTAGATAA	0.129
CGTGCATA	0.12
GACATCGC	-0.0367
ATAAGGTG	0.237
ATGGTCCA	-0.234
TCGGACAA	0.0914
GAATTATC	0.253
CACAAAAC	0.116
CCCCATCC	-0.192
ATGTCCGC	-0.093
CTGTCTGA	-0.0872
TCTGTCAA	0.111
GCCAAACC	-0.267
GTGAGACA	-0.00295
ATCCTATC	-0.0914

Sequence	PBM E-score
ATAGGAAA	0.186
AGTCCTTC	-0.416
ATAATTTC	0.212
GCTCCTCA	-0.202
AGTCAGTA	0.0551
TATACTCA	0.142
CCGAAGAA	-0.024
ACGAACCC	-0.163
AGTCAGTC	-0.0902
GAGCTAAC	0.02
AATTCCGG	-0.139
ACCCCAAT	-0.088
GCCGGCCA	-0.126
ACTCAACC	0.0398
CGATGCCG	0.0247
CCCATCCA	-0.135
CAAAGCAA	0.128
CGAGCGGC	0.0772
AACTTCAA	0.127
ATAAAACC	0.037
CTACGCGA	-0.112
ATAAGAGA	0.217
GTGAAATA	0.0961
ATACATAG	0.108

Sequence	PBM E-score
CATGACAG	0.118
AACCAATC	0.0677
AAGCGAGC	-0.164
TGGACCCA	-0.163
GGACACCC	-0.391
GCAAGCGC	-0.112
AAATGAGT	0.183
ACGAAAGT	0.218
GGAAAGTA	0.0506
CCCGTCAG	-0.282
AACTGTGA	0.147
ACCCCTCA	-0.295
TCACGGGA	0.0436
AGATACAT	0.168
TGACAAAA	0.337
TGCGCCCA	-0.17
GGACAACA	-0.0829
ACCTTCGA	-0.0936
ACACGACT	-0.0344
CATCGCAA	-0.0967
GAACCTGA	-0.0356
CAGCTTAA	0.03
